# Measurements: PubChem BioAssay AID1346428 (National Center for Advancing Translational Sciences (NCATS), 2018)
# Several values for one entry are separate records, joined by “and”; a condition that tells them apart may be missing. Identical values can stand only once. Screen size: about 48,000 compounds; about 1,200 (2.5%) were called active. Inconclusive results (about 2%) are left out.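 How the source made its calls: active means activation of at least 60% and not above a set upper limit (about 1 call in 100 departs from these limits); inconclusive means activation of 40% to 60%, or above that upper limit; inactive means activation under 40%.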 This is one part of the list.
# Target: Probable G-protein coupled receptor 32 (Homo sapiens) (UniProt O75388)
# Assay: qHTS for Agonists of Human Resolvin D1 Receptor DRV1; further: 0% is about no effect
# Settings: CHO-K1 GPR32 beta-arrestin PathHunter luminescence, 90 min; at 76.9 µM; hits give high values; zero percent set by DMSO-only wells
# Method in brief: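 Beta-arrestin recruitment read-out: luminescence from complemented beta-Gal in CHO-K1 GPR32 PathHunter cells, measured 1 h after detection reagent at ambient temperature following 90 min compound exposure at 37 °C; DMSO served as basal (EC0) control.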
# Chain of UniProt O75388 (O75388 whole entry, looked up): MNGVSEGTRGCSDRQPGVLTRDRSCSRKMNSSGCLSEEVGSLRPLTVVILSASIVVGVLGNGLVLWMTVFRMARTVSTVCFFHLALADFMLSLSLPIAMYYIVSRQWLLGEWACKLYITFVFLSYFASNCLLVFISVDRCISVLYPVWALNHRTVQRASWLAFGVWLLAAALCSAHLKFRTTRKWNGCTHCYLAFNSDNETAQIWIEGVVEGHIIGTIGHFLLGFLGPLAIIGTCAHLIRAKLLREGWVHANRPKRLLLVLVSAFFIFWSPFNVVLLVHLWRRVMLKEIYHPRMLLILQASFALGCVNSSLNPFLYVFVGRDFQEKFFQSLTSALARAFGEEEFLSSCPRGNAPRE
row,SMILES,activation
1,COc1ccc(-c2nc(SCC(=O)Nc3cccc(C(C)=O)c3)n[nH]2)cc1,inactive: -2.1%
2,CCc1c(C)nc2nncn2c1Nc1cccc(C)c1,inactive: -7.21%
3,N#Cc1ccccc1S(=O)(=O)N1CCC(Oc2ccc(-n3cnnn3)cc2)CC1,inactive: 9.49%
4,O=C(Cc1ccccc1)Nc1cc(-c2nc3cc(Cl)ccc3o2)ccc1Cl,inactive: -2.02%
5,COc1ccc(Cc2nc3ccc(C(=O)NCc4cc(Br)ccc4OC)cc3o2)cc1,inactive: -23.4%
6,Fc1ccc(-c2noc3ncnc(N4CCCCC4)c23)cc1,inactive: 4.96%
7,CNC(=O)C1CCN(C(=O)N2CC(C)Oc3ccc(C)cc32)CC1 (stereo not given),inactive: -7.04%
8,Cc1ccc(C)c(NC(=O)Cn2nnc(C(=O)NCc3ccco3)c2N)c1,inactive: -4.27%
9,CCOC(=O)c1c(NC(=O)CS(=O)(=O)c2ccc(Cl)cc2)sc2c1CCCC2,inactive: -7.85%
10,COc1ccc(CCC(=O)NCc2nc3cccnc3n2Cc2ccc(OC)cc2)cc1,inactive: -13%
11,COc1ccccc1N(C)C(=O)Cn1c(=O)oc2cc(S(=O)(=O)N3CCCC3)ccc21,inactive: -7.67%
12,O=C(O)CCNC(=O)c1ccc(N=Nc2ccc(O)c(C(=O)O)c2)cc1,inactive: -56.5%
13,Cc1ccccc1CNC(=O)C1CCCN(c2nnc(-n3c(C)ccc3C)s2)C1 (stereo not given),inactive: 24.4%
14,COc1ccc(-c2cc(C(=O)OCC(=O)c3cccc(OC)c3)c3cccc(Cl)c3n2)cc1,inactive: -1.77%
15,CCOC(=O)c1c(NC(=O)c2cc(=O)c3c(C)cc(C)cc3o2)sc2c1CCC2,inactive: -17%
16,Cc1nn(C)c2c1c(C(F)(F)F)cc(=O)n2C(C)C(=O)N1CCN(c2ccccc2)CC1 (stereo not given),inactive: -1.23%
17,Cn1c(=O)c2c(ncn2CC(=O)Nc2cc(Cl)cc(Cl)c2)n(C)c1=O,inactive: 4.9%
18,CCOC(=O)c1cc(-c2ccccc2)n(CCCC(=O)Nc2ccc(C)c(C)c2)c1C,inactive: -24.2%
19,Cn1cc(S(=O)(=O)N2CCCCCC2)cc1C(=O)N1CCN(c2ccc(Cl)cc2)CC1,inactive: -9.24%
20,Clc1ccc(CCNC(c2cccc(Cl)c2)c2nnc(-c3ccccc3)o2)cc1 (stereo not given),inactive: -26.9%
21,COc1ccc(Cl)cc1NC(=O)CSc1nc2ccccc2nc1N1CCCCC1,inactive: -6.07%
22,CCOC(=O)c1c(C)[nH]c(C)c1S(=O)(=O)N1CCN(c2ccccc2OC)CC1,inactive: -26.3%
23,CCOC(=O)c1c(C)oc2ncnc(N3CCN(c4cccc(Cl)c4)CC3)c12,inactive: -6.18%
24,CCOC(=O)c1cccc(Nc2cc(C)nc(C)n2)c1,inactive: -1.64%
25,Oc1ccc(Nc2nc(-c3ccc(Cl)cc3)nc3ccccc23)cc1,inactive: -16.8%
26,Cc1noc(Cn2c(=O)c3ccccc3n(CC(=O)Nc3ccccc3C(F)(F)F)c2=O)n1,inactive: -7.89%
27,Cc1cccc(-n2ncc3c(Nc4c(C)cc(C)cc4C)ncnc32)c1,inactive: -33.1%
28,Cc1nnc2c3ccccc3nc(N3CCN(c4cccc(Cl)c4)CC3)n12,inactive: -1%

row,SMILES,activation
1,CCOCCCn1c(=N)c(C(=O)NC2CCCC2)cc2c(=O)n3cccc(C)c3nc21,inactive: -12.2%
2,CCCCOc1ccc(C2c3c(oc4ccccc4c3=O)C(=O)N2c2nc(C)c(C(=O)OCC)s2)cc1OC (stereo not given),inactive: 15.5%
3,CCc1ccc(NC(=O)c2ccc3c(c2)c(C)c(C)n3Cc2ccccc2)cc1,inactive: -5.7%
4,CCc1ccc(NC(=O)c2oc3c(c2C)-c2[nH]ncc2CC3)cc1,inactive: 4.96%
5,COc1ccccc1CNC(=O)CN1C(=O)CCCc2ccccc21,inactive: -17%
6,O=C(CCC1N=C2c3ccccc3N=C(SCc3cccc(F)c3)N2C1=O)NCc1ccc(F)cc1 (stereo not given),inactive: -8.72%
7,Cc1ccc(CCNC(=O)CN2CCN(Cc3ccc(Cl)cc3)C2=O)cc1,active: 60.1%
8,CC(=O)c1ccc(NC(=O)c2ccc(CN3C(=O)CCn4nc(C)cc43)cc2)cc1,inactive: -6.29%
9,Cc1ccc(S(=O)(=O)Nc2ccc3c(c2)c(C(=O)OC(C)C)c(C)n3S(=O)(=O)c2ccc(C)cc2)cc1,inactive: -28.6%
10,COc1ccc(S(=O)(=O)NCCc2cn3ccsc3n2)cc1,inactive: -9.88%
11,CCc1ccc(NC(=O)Cn2nnc(C(=O)Nc3cc(C)ccc3OC)c2N)cc1,active: 74.3%
12,O=C(Nc1ccccc1Br)N1CCN2CCCCC2C1 (stereo not given),inactive: -3.8%
13,CCc1ccc(NC(=O)CN2C(=O)CCSc3ccc(S(=O)(=O)N4CCCC4)cc32)cc1,inactive: -7.59%
14,COc1ccc(C(=O)c2cn(Cc3cccc(C)c3)c3cc4c(cc3c2=O)OCCO4)cc1OC,inactive: -17.3%
15,NC1CCN(c2cccc(Cl)n2)CC1,inactive: 32.9% and inactive: -14.7%
16,Cc1nn2c(=O)cc(COC(=O)c3ccc(F)cc3)nc2s1,inactive: -14.2%
17,CC1C(=O)N(C)C(=O)c2nc[nH]c21 (stereo not given),inactive: -0.0662%
18,COC(=O)c1ccccc1NC(=O)c1cc(=O)c2ccc(C)c(C)c2o1,inactive: 1.06%
19,Cn1nnnc1SCCCNCc1ccccc1OCc1ccccc1F,inactive: -0.159%
20,Cc1ccc(N(C(=O)c2cccc(C)c2)S(=O)(=O)c2ccc(Cl)cc2)cc1,inactive: -10.5%
21,CCN(CC)CCNC(=O)Cn1ncc2c3ccccc3n(Cc3ccccc3C)c2c1=O,inactive: 6.36%
22,COc1ccc(CCNC(=O)Cn2ccc3cc(S(=O)(=O)N4CCCCC4)ccc32)cc1OC,inactive: -16%
23,COc1ccc(Cn2ccc3nc(C)c(C(=O)Nc4ccc(OC)cc4OC)cc3c2=O)cc1,inactive: -8.42%
24,O=C1Nc2cc(Cl)ccc2Oc2cc(Oc3ccccc3)ccc21,inactive: 22.6%
25,Cc1ccc(NC(=O)Cn2cc(S(=O)(=O)NC(C)C)c(S(=O)(=O)NC(C)C)c2)cc1Cl,active: 68.9%
26,Cc1ccc(C)c(CN2C(=O)c3ccccc3S(=O)c3ccc(C(=O)NCc4ccco4)cc32)c1 (stereo not given),inactive: -10.1%
27,Cc1ccc(NC(=O)Cn2c(=O)n(CCc3ccccc3)c(=O)c3c4c(sc32)CCCC4)cc1C,inactive: -16.6%
